Results on 4 substances are retold here after article PMC3225393.

Amino acid sequences for entries named in this document (tags omitted). A change or cut given only in a name is not applied to a line headed by its entry. Chains listed by the source or under a name are the forms on record and can include a tag or linker. Residues count along the entry.
UniProt P15941, residues 1182-1255: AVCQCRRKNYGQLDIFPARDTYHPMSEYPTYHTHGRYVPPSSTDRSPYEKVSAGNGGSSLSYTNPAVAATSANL
UniProt P14618: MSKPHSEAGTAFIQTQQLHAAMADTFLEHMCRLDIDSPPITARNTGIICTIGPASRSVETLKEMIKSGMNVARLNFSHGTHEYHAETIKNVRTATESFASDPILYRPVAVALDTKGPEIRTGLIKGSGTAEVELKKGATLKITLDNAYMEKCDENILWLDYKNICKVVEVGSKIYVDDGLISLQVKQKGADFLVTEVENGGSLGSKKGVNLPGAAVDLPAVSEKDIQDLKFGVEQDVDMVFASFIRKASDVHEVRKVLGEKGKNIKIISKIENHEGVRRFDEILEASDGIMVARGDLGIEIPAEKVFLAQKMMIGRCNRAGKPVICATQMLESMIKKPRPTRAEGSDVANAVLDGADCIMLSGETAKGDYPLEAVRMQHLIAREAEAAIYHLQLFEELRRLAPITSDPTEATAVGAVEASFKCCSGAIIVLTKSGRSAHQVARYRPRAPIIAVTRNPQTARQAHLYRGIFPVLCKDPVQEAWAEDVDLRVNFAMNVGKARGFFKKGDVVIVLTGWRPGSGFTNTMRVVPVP
GST-PKM2(1-218): residues 1-218 of P14618
GST-PKM2(1-43): residues 1-43 of P14618
GST-PKM2(44-116): residues 44-116 of P14618
GST-PKM2(117-218): residues 117-218 of P14618
GST-PKM2(219-389): residues 219-389 of P14618
GST-PKM2(390-531): residues 390-531 of P14618
GST-PKM2(390–531/C474A) (P14618, form named): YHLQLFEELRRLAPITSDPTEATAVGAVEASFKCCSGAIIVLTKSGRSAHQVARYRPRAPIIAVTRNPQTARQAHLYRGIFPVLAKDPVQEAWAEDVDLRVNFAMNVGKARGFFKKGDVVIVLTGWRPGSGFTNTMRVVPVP
GST-PKM2(390-531/K433E) (P14618, form named): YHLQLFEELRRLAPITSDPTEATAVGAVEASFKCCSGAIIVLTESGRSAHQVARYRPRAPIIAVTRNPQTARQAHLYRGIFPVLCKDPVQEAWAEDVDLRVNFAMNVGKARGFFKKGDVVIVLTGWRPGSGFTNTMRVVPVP
GST-PKM2(390–531) C423A (P14618, form named): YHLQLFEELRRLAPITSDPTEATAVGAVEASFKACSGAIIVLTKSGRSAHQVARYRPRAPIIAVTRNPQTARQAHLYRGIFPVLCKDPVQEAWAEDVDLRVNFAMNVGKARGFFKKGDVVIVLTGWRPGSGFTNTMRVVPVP
GST-PKM2(117-218) C152A (P14618, form named): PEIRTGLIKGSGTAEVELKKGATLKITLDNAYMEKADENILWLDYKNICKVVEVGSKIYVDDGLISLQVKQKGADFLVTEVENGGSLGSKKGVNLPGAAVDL
GST-PKM2(117-218) C165A (P14618, form named): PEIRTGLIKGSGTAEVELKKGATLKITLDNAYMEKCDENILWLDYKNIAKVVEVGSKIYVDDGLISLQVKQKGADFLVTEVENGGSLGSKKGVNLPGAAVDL
GST-PKM2(390–531) C424A (P14618, form named): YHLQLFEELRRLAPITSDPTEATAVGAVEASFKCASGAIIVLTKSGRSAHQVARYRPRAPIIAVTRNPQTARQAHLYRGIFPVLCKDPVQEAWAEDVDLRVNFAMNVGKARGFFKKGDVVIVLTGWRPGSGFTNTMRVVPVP

Results are given in words; binding and its absence hold for the method and conditions named. For some assays here: Binding seen in cells or lysates may run through a third protein. Some results given as binding are weak or reduced against the parent protein; the word gives no strength.

The target in test [1] is GST-MUC1-CD (human) (UniProt P15941). As to the kind of experiment: pull-down; purified recombinant His-tagged PKM2 incubated with GST, GST-MUC1-CD proteins (deletion and Cys mutants, EGFR-phosphorylated or not) on glutathione beads; adsorbates blotted; both purified.
Test [2] has the same target. Put plainly: pull-down; ZR-75-1 cell lysates incubated with GST, GST-MUC1-CD and GST-MUC1-CD deletion mutants; adsorbates blotted with anti-PKM2; only the target purified.
In test [3] the target is GST-PKM2(390–531/C474A) (human) (UniProt P14618). As to the kind of experiment: pull-down; MUC1-CD proteins (EGFR-phosphorylated or not) incubated with GST and GST-PKM2 deletion or point mutants; adsorbates to glutathione beads blotted with anti-MUC1-C; both purified.
Test [4] concerns the target GST-PKM2(390-531/K433E) (human) (UniProt P14618). The description is as above.
Test [5] concerns the target GST-PKM2(390-531) (human) (UniProt P14618). The test is described as above.
The target of a further test is GST-PKM2(1-218) (human) (UniProt P14618). The description is as above.
In test [6] the target is GST-PKM2(219-389) (human) (UniProt P14618). The test is described as above.
In another test the target is GST-PKM2(44-116) (human) (UniProt P14618). The description is as above.
In test [7] the target is GST-PKM2(390–531) C423A (human) (UniProt P14618). The description is as above.
For test [8], the target named is GST-PKM2(117-218) (human) (UniProt P14618). The test is described as above.
In another test the target is GST-PKM2(1-43) (human) (UniProt P14618). Described as above.
Test [9] concerns the target GST-PKM2(117-218) C152A (human) (UniProt P14618). Described as above.
Test [10] addresses GST-PKM2(117-218) C165A (human) (UniProt P14618). The description is as above.
Test [11] deals with GST-PKM2(390–531) C424A (human) (UniProt P14618). Described as above.

On to “recombinant His-tagged PKM2 (from UniProt P14618 1-531)”, for which the binding entry in the test with GST-MUC1-CD (human) [1] is recorded as “binds”.
In the case of “pyruvate kinase M2 (PKM2), endogenous in ZR-75-1 cells (from UniProt P14618 1-531)”, the binding entry in the test with GST-MUC1-CD (human) [2] was “binds”.
For “EGFR-phosphorylated MUC1-CD (p-MUC1-CD) (from UniProt P15941 1182-1255) (domain or fragment)”, the binding entry (in [3]; in test [4]; in test [5]; with GST-PKM2(1-218) (human)) was “binds” in each case.
With “MUC1-CD (soluble, incubated with GST-PKM2 proteins) (from UniProt P15941 1182-1255) (domain or fragment)”, the binding result in test [6] is reported as “no binding”; in [3], “binds”; in test [5], “binds”; in the test with GST-PKM2(1-218) (human), “binds”; in the test with GST-PKM2(44-116) (human), “no binding”; in [7], “binds”. The binding entry in test [8] is given as “binds”; with GST-PKM2(1-43) (human), “no binding”; in [9], “binds”; in test [10], “no binding”; in test [11] it was “binds”.
